Measurements reported in PubChem BioAssay AID1963576 (National Center for Advancing Translational Sciences (NCATS), 2024).
The whole screen tested about 46,000 compounds, of which about 60 (0.1%) were called active. Not shown: some 3% with an inconclusive outcome. The call rests on the fitted dose curve; in most records, active means well fitted inhibition curve with a large enough effect; inconclusive means small, poorly fitted or top-dose-only effect; inactive means no such curve, though single readings can be large or run the other way. The list shows a part of the results.

experiment: Primary qHTS assay for Inhibitors of ovarian cancer metastasis using an organotypic tumor microenvironment (TME) model.; further: nearly all actives have a fitted effect of over 65% in size;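 on Potency: count of GFP cancer cells still attached after washing and fixation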;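 on activity change, negative = inhibition: plate controls were DMSO wells for no effect and tomatine positive control wells for full effect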; details: SKOV3ip1-GFP adhesion/invasion on 3D omental model, fluorescence; series mostly up to 45.8 µM; activity change, negative = inhibition: at the top concentration
Outline: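 A 3D layer of primary human omental fibroblasts, mesothelial cells, fibronectin and collagen I, grown 48 hr, received SKOV3ip1-GFP cells in serum-free medium plus compounds at 0.36-46 umol/L. After 2 hr RT and 16 hr 37 C, fixed adherent GFP cells were counted; normalized to DMSO and tomatine.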
Potency means the concentration at half of the fitted maximal effect.

outcome, inactive:
COc1ccc(-c2nc(Cn3c(SCc4cccc(Cl)c4)nc4ccncc43)c(C)o2)cc1
COc1ccc(S(=O)(=O)NCCc2csc3nc(-c4ccc(Cl)cc4)nn23)cc1C
CC(=O)Nc1ccccc1OCc1cc(=O)n2c3c(sc2n1)CCCC3
Cc1ccc(Cn2nc(C)c(NC(=O)c3cc(-c4ccc(F)cc4)on3)c2C)cc1
O=C(CN1CCN(Cc2ccc(F)cc2Cl)S1(=O)=O)Nc1ccc(F)cc1
Cc1cccc(-n2c(-c3ccco3)nc3c(cnn3-c3ccccc3C)c2=O)c1
Cc1cccc(OCC(=O)NCC2(N3CCN(C)CC3)CCCCC2)c1C
CCc1ccc(S(=O)(=O)c2nnn(-c3ccc(F)cc3)c2N)cc1
Cc1ccc(NC(=O)c2ccc3snnc3c2)cc1Cl
COc1ccc(-c2ccnc3[nH]n(-c4ccccc4)c(=O)c23)cc1
CCOC(=O)c1ccc(N2CCN(c3ccc(F)cc3)CC2)c(NC(=O)Nc2cccc(OC)c2)c1
CCCCN(CCCC)CCNC(=O)c1cn(CC)c2ccc(S(=O)(=O)N3CCc4ccccc4C3)cc2c1=O
CCOC(=O)c1cccc(NC(=O)CCc2c(C)nn(-c3ccc(N4CCCC4)nn3)c2C)c1
CCC1CN(C(=O)C2CCN(S(=O)(=O)c3c(C)noc3/C=C/c3ccccc3F)CC2)c2cc(Cl)ccc2O1 (centres undefined)
CCOC(=O)Cn1nc(-c2ccccc2)c2cnc3ccc(OCC)cc3c21
Cc1cccc(C(=O)Nc2ccc(C(=O)OCc3cc(=O)n4nc(C5CC5)sc4n3)cc2)c1
Cc1ccc(N2C(=O)NC(NS(=O)(=O)c3ccc(Cl)cc3)(C(F)(F)F)C2=O)cc1C (centres undefined)
O=C(c1ccco1)n1nc(-c2ccc(Cl)cc2)nc1NCc1ccccc1
CSc1ccc(CCNC(=O)Cn2ncc3c(=O)oc4ccccc4c32)cc1
Cc1ccc(NC(=O)C2CCCN2S(=O)(=O)c2ccc3nc(-c4ccccc4)[nH]c3c2)cc1F (centres undefined)
COCCNC(=O)CSc1cn(CC(=O)N2CCCCCC2)c2ccccc12
CCc1nn(CC(=O)Nc2cc(C)cc(C)c2)c(=O)c2cc3sccc3n12
CSc1ccc(CCNC(=O)CCc2c(C)nc3c(c(C)nn3-c3ccc(C)c(C)c3)c2C)cc1
CCCN(CCC)CCNC(=O)c1cc2c(-c3ccc(Cl)cc3)nn(C)c2s1
Cc1ccc(CN2C(=O)CN(C3CCC(C)CC3)C(=O)C2c2ccc(F)cc2)cc1 (centres undefined)
CC(C)CC(=O)Nc1ccc2nc(SCC(=O)N3CCCC3)sc2c1
COc1ccc(NC(=O)N2CCc3c(sc4c3CCCC4)C2c2ccccc2OC)cc1 (centres undefined)

Activity change, negative = inhibition, inactive:
CS(=O)(=O)N1CCc2cc(S(=O)(=O)NCc3ccccc3Cl)ccc21 -19.3%
COc1ccc2[nH]c(=O)c(CN(C(=O)c3cccc(Cl)c3)c3ccccc3OC)cc2c1 -21.3%
Cn1c2ccccc2c2cnn(CC(=O)NCc3ccc(Cl)cc3)c(=O)c21 1.11%
Cc1ccc(NC(=O)Cn2c(C)cc(C)c(C#N)c2=O)cc1 18%
CCOc1ccc(NC(=O)Cn2c(=O)oc3cc(S(=O)(=O)NC4CCCC4)ccc32)cc1 -1.92%
Cc1ccc(C(c2sc3nc(-c4ccco4)nn3c2O)N2CCOCC2)cc1 (centres undefined) 16.2%
COc1ccccc1NC(=O)CSc1nc2ccccc2c(=O)n1CCC(=O)NC1CCCCC1 -1.65%
COC(=O)c1cc2c(cc1NC(=O)c1c(C)nn(-c3ccc(C)cc3)c1-n1cccc1)OCO2 -2.57%
COc1cc(NC(=O)Cn2ccn(Cc3ccccc3OC)c(=O)c2=O)cc(OC)c1 2.24%
CCOC(=O)c1c(S(=O)(=O)N2CCCC(C(=O)N(C)Cc3ccccc3)C2)c(C)n(C)c1C (centres undefined) 13.6%
Cc1ccccc1NC(=O)C1CCC(CNS(=O)(=O)c2ccc3c(c2)C(C)(C)C(=O)N3C)CC1 (centres undefined) 3.63%
Cc1cc(NS(=O)(=O)c2ccc(NC(=O)c3ccccc3F)cc2)nc(C)n1 0.627%
Cc1ccc(-n2ncc3c(N(C)Cc4ccccc4)ncnc32)cc1 -4.28%
CCOc1ccc(CCNC(=O)c2cn(C)c3ccc(S(=O)(=O)N4CCOCC4)cc3c2=O)cc1OCC -0.11%
C=C(C)Cn1c(SCC(=O)Nc2cc(C)ccc2C)nc2sc3c(c2c1=O)CCCC3 4.08%
CCCNC(=O)C(=O)NCC(c1ccc2c(c1)OCO2)N1CCOCC1 (centres undefined) -1.93%
COc1ccc(OCc2ccc(-c3nc(C#N)c(N4CCC(C)CC4)o3)o2)cc1 -3.58%
COc1ccccc1N1CCN(S(=O)(=O)c2ccc3[nH]c4c(c3c2)CCCC4)CC1 3.23%
CCC(=O)N1CCc2cc(Br)cc(S(=O)(=O)CCC(=O)N3CCN(c4ccccc4OC)CC3)c21 4.2%
Cc1ccc(-n2ncc(C(=O)N3CCCCC3)c2C2CCN(C(=O)OC(C)(C)C)CC2)cc1C -7.77%
COc1ccc(C(=O)N2CC(=O)Nc3ccc(C)cc3C2c2ccccc2)c(OC)c1 (centres undefined) -25.1%
CCc1ccc(NC(=O)C2CCCN(S(=O)(=O)c3ccc4c(c3)CCCN4C(C)=O)C2)cc1 (centres undefined) 4.13%
CCOc1cc(-c2nnc(SCC(=O)NCc3ccccc3)nc2-c2ccc(OC)c(OCC)c2)ccc1OC 0.736%
CCCN(CCC)CCNC(=O)CN1C(=O)COc2ccc(S(=O)(=O)N3CCC(C)CC3)cc21 16.2%
Cc1ccc(OCC(=O)NCC2(N3CCOCC3)CCCCC2)cc1C -22.9%
Cc1ccc(-c2nc3ccccc3s2)cc1NC(=O)COc1ccccc1 -9.84%
COc1ccc(N(Cc2cccs2)C(=O)c2ccc(Br)o2)cc1 -4.97%
O=C(CN(CCc1ccccc1)S(=O)(=O)c1ccc(Br)cc1)NCc1ccc(Cl)cc1 -4.85%
CCOC(=O)CSc1nc2c([nH]c3ccccc32)c(=O)n1-c1ccc(OC)cc1 25.5%
Cc1oc(-c2cccc(Cl)c2)nc1CN1CCC(C(=O)NCCCN2CCN(c3ccccc3F)CC2)CC1 0.226%
Cc1ccc2c(=O)cc(C(=O)Nc3ccc(S(=O)(=O)Nc4nc(C)cc(C)n4)cc3)oc2c1 -21.8%
CCc1ccc(NC(=O)CSC2=Nc3ccccc3C3=NC(CC(=O)NC4CCCCC4)C(=O)N23)cc1 (centres undefined) -5.31%
O=C(C1CCN(c2ncnc3c2nc2n3CCCCC2)CC1)N1CCN(c2ccc(F)cc2)CC1 7.15%
CCOc1cc(C2C(C(=O)Nc3ccc(OC)cc3)=C(C)Nc3nc(SC)nn32)ccc1O (centres undefined) -15.5%
COc1ccccc1N1CCN(C(=O)CCc2nnc3n(C)c(=O)c4sccc4n23)CC1 -10.2%
COc1ccc(S(=O)(=O)NCC(c2ccc(N(C)C)cc2)N2CCc3ccccc32)cc1 (centres undefined) -2.54%
COc1ccc(S(=O)(=O)N2CCC(c3ccncc3)CC2)cc1OC -18.2%
CCc1ccc(NC(=O)Cn2c(=O)n(Cc3nc(-c4ccccc4)no3)c(=O)c3cc4c(cc32)OCO4)cc1 -1.04%
CCCC(=O)N1CC(=O)Nc2ccc(Cl)cc2C1c1ccccc1 (centres undefined) 8.72%
CCOc1ccc(OCC)c(NC(=O)C2CCN(S(=O)(=O)c3cn(C)cn3)CC2)c1 1.07%
Cc1ccn2c(Nc3ccc(F)cc3)c(-c3ccccn3)nc2c1 -1.9%
COc1ccc(OC)c(Nc2ncnc3c2cnn3-c2cccc(Cl)c2)c1 -6.1%
Cc1ccc(C)c(CSc2ccc3nnc(CCNS(=O)(=O)c4ccccc4)n3n2)c1 37.2%
CCCCC(=O)OC1=C(C(C)=O)N(Cc2ccccc2)S(=O)(=O)c2ccccc21 11.2%
O=C(Cn1nc(-c2ccccc2)nc(Cc2ccccc2)c1=O)Nc1ccccc1 -2.81%
CCN(CC)CCNC(=O)C1CCN(c2cc(C)nc3c(-c4ccc(Cl)cc4)c(C)nn23)CC1 -7.08%
Cc1ccc(NS(=O)(=O)c2cnc(N)nc2)c(C)c1 -2.82%
O=C(NCCc1nc2ccccc2n1Cc1ccccc1)c1ccco1 7.98%
Cc1ccc(CN2CCCn3nc(C(=O)NCc4ccc(OC(C)C)cc4)cc3C2=O)cc1 3.98%
Cc1nc(-n2nc(C)c(Cc3ccc4c(c3)OCO4)c2C)sc1C(=O)Nc1cccc(Cl)c1 -1.5%
CCOC(=O)c1cccc(NC(=O)c2ccc3nc(C(C)C)oc3c2)c1 -6.66%
COc1cc(-c2noc(CN3CCN(c4cccc(Cl)c4)CC3)n2)cc(OC)c1OC -10.1%
CSc1cccc(NC(=O)CC(c2cccs2)N2Cc3ccccc3C2=O)c1 (centres undefined) -14.7%
CCOc1ccccc1NC(=O)N1CCN(C)c2ncccc21 4.62%
COc1ccc(Cn2c(=O)n(-c3ccccc3C)c(=O)c3c4c(sc32)CN(C(C)=O)CC4)cc1 15%
CCC(C(=O)Nc1nnc2n1CCS2)c1ccccc1 (centres undefined) -0.956%
O=C(Nc1cccc(Cl)c1Cl)c1cc2nc(-c3ccc(Cl)cc3)cc(C(F)(F)F)n2n1 6.76%
CCOc1ccc(N(CC(=O)Nc2cc(C)ccc2C)S(=O)(=O)c2c(C)[nH]c(=O)[nH]c2=O)cc1 -3.34%
Cc1ccc(NC(=O)CCn2nc(C)c(S(=O)(=O)N3CCCCC3)c2C)cc1Cl -20.9%
CCOC(=O)c1c(C)sc(-c2c(-c3cc(C)ccc3C)[nH]c3c2c(=O)n(C)c(=O)n3C)c1O 2.31%
Cc1ccc(OCC(=O)NCC(c2ccc(Cl)cc2)N2CCCCC2)cc1 (centres undefined) 3.19%
Cc1ccc(C)c(CN2C(=O)c3ccccc3S(=O)(=O)c3ccc(C(=O)N4CCc5ccccc54)cc32)c1 -11.6%
CCCNC(=O)CSc1nc2ccccc2nc1Cc1ccc(Cl)cc1 3.82%
CCN(c1ccc(C)cc1)S(=O)(=O)c1nnc(NC(=O)C2CCCCC2)s1 -2.39%
COc1ccc(CNS(=O)(=O)c2cc3c(cc2C)N(C)CCO3)cc1 -21.6%
Cc1ccc(Cn2cc(C(=O)c3ccc(F)cc3)c(=O)c3cc4c(cc32)OCO4)cc1 -19.2%

Potency, active:
CCN(CC)CCNC(=O)c1cc(-c2ccc(Br)s2)nc2ccccc12 10 µM
